# The supplement of paper PMC10037445
# The full ranking holds about 2,900 compounds; the median of “NF-kB SEAP reporter activity, fold change vs agonist alone” is about 0.99, and the highest 2% start at about 2.6. The list shows a part of the results.
# Tests used:
# RAW-Dual [1] = assay: NF-kB SEAP reporter activity, fold change vs agonist alone; higher = enhanced NF-kB activity; conditions: library stock concentration (final ~1000-fold dilution): 10 mM
# Summary of the method: (§1)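 After 50 nL of library stock was delivered by pin tool to RAW-Dual macrophages (50,000 cells/well, DMEM, 384-well plates), a PRR agonist was added 1 h later and the plates were kept at 37 °C, 5% CO2. Twenty hours later, IRF was read from supernatant by QuantiLuc luminescence and NF-κB by QuantiBlue absorbance at 620 nm. Reporter activity is stated as fold change over agonist-alone wells. Wells with IncuCyte confluency under 70% of agonist controls in both mask sets were counted as cytotoxic.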
# RAW-Dual [2] = assay: NF-kB SEAP reporter activity, fold change vs agonist alone; cytotoxicity flag (confluency mask): not cytotoxic; higher = enhanced NF-kB activity
# Summary of the method: as §1
# RAW-Dual [3] = assay: NF-kB SEAP reporter activity, fold change vs agonist alone; cytotoxicity flag (confluency mask): cytotoxic (confluency <70% of control); higher = enhanced NF-kB activity
# Summary of the method: as §1
# [4] = cytotoxicity flag (confluency mask): not cytotoxic, agonist: Imiquimod (TLR7) […]
# [5] = cytotoxicity flag (confluency mask): not cytotoxic, agonist: MPLA (TLR4) […]
# [6] = agonist: ODN 1826 (TLR9) 0.5 ug/mL
# [7] = agonist: Pam2CSK4 (TLR2/6) 0.1 ug/mL
# [8] = agonist: Pam3CSK4 (TLR2/1) 0.1 ug/mL
structure (smiles),measurement,setting,value
CC(C)c1ccc2c(c1O)CCC1C3=C(CCC21C)C(=O)OC3 (stereo not drawn),NF-kB SEAP reporter activity,RAW-Dual [1]; [4],0.849
same,NF-kB SEAP reporter activity,RAW-Dual [1]; [5],1.2
CC(C)c1ccc2c(c1O)CCC1C3=C(CCC21C)C(=O)OC3 (stereo not drawn) (library stock concentration (final ~1000-fold dilution): 10 mM),NF-kB SEAP reporter activity,RAW-Dual [2]; agonist: LPS (TLR4) 0.1 ug/mL,1.02
same,NF-kB SEAP reporter activity,RAW-Dual [2]; [6],0.678
same,NF-kB SEAP reporter activity,RAW-Dual [2]; [7],0.929
same,NF-kB SEAP reporter activity,RAW-Dual [2]; [8],0.968
COc1ccc2c(c1O)-c1c(OC)c(OC)cc3c1C(C2)N(C)CC3 (stereo not drawn),NF-kB SEAP reporter activity,RAW-Dual [1]; [4],0.969
same,NF-kB SEAP reporter activity,RAW-Dual [1]; [5],1.03
COc1ccc2c(c1O)-c1c(OC)c(OC)cc3c1C(C2)N(C)CC3 (stereo not drawn) (library stock concentration (final ~1000-fold dilution): 10 mM),NF-kB SEAP reporter activity,RAW-Dual [2]; agonist: LPS (TLR4) 0.1 ug/mL,1.21
same,NF-kB SEAP reporter activity,RAW-Dual [2]; [6],0.945
same,NF-kB SEAP reporter activity,RAW-Dual [2]; [7],1.11
same,NF-kB SEAP reporter activity,RAW-Dual [2]; [8],1.05
CCNC1(c2cccs2)CCCCC1=O.Cl (stereo not drawn) (library stock concentration (final ~1000-fold dilution): 10 mM),NF-kB SEAP reporter activity,RAW-Dual [2]; agonist: LPS (TLR4) 0.1 ug/mL,0.97
same,NF-kB SEAP reporter activity,RAW-Dual [2]; [6],0.957
same,NF-kB SEAP reporter activity,RAW-Dual [2]; [7],1
same,NF-kB SEAP reporter activity,RAW-Dual [2]; [8],0.754
CCNC1(c2cccs2)CCCCC1=O.Cl (stereo not drawn),NF-kB SEAP reporter activity,RAW-Dual [1]; [5],1.03
COc1ccc(C=O)cc1O,NF-kB SEAP reporter activity,RAW-Dual [1]; [5],1.02
COc1ccc(C=O)cc1O (library stock concentration (final ~1000-fold dilution): 10 mM),NF-kB SEAP reporter activity,RAW-Dual [2]; agonist: LPS (TLR4) 0.1 ug/mL,1.43
same,NF-kB SEAP reporter activity,RAW-Dual [2]; [6],0.878
same,NF-kB SEAP reporter activity,RAW-Dual [2]; [7],1.24
same,NF-kB SEAP reporter activity,RAW-Dual [2]; [8],0.929
COc1ccc2c(c1)/C(=C/c1cnc[nH]1)C(=O)N2 (library stock concentration (final ~1000-fold dilution): 10 mM),NF-kB SEAP reporter activity,RAW-Dual [2]; agonist: LPS (TLR4) 0.1 ug/mL,1.06
same,NF-kB SEAP reporter activity,RAW-Dual [2]; [6],1.65
same,NF-kB SEAP reporter activity,RAW-Dual [2]; [7],0.608
same,NF-kB SEAP reporter activity,RAW-Dual [2]; [8],0.725
COc1ccc2c(c1)/C(=C/c1cnc[nH]1)C(=O)N2,NF-kB SEAP reporter activity,RAW-Dual [1]; [4],1.37
same,NF-kB SEAP reporter activity,RAW-Dual [1]; [5],1.86
CC(=O)OC1CC2CCC3C(CCC4(C)C3CC([N+]3(C)CCCCC3)C4OC(C)=O)C2(C)CC1[N+]1(C)CCCCC1 (stereo not drawn) (library stock concentration (final ~1000-fold dilution): 10 mM),NF-kB SEAP reporter activity,RAW-Dual [2]; agonist: LPS (TLR4) 0.1 ug/mL,1.19
same,NF-kB SEAP reporter activity,RAW-Dual [2]; [6],1.04
same,NF-kB SEAP reporter activity,RAW-Dual [2]; [7],0.973
same,NF-kB SEAP reporter activity,RAW-Dual [2]; [8],1.04
CC(=O)OC1CC2CCC3C(CCC4(C)C3CC([N+]3(C)CCCCC3)C4OC(C)=O)C2(C)CC1[N+]1(C)CCCCC1 (stereo not drawn),NF-kB SEAP reporter activity,RAW-Dual [1]; [4],0.933
same,NF-kB SEAP reporter activity,RAW-Dual [1]; [5],0.963
COc1ccc2c(c1)[nH]c1c(C)nccc12 (library stock concentration (final ~1000-fold dilution): 10 mM),NF-kB SEAP reporter activity,RAW-Dual [2]; agonist: LPS (TLR4) 0.1 ug/mL,0.78
same,NF-kB SEAP reporter activity,RAW-Dual [2]; [6],0.197
same,NF-kB SEAP reporter activity,RAW-Dual [2]; [7],0.843
same,NF-kB SEAP reporter activity,RAW-Dual [2]; [8],0.739
COc1ccc2c(c1)[nH]c1c(C)nccc12,NF-kB SEAP reporter activity,RAW-Dual [1]; [4],0.982
same,NF-kB SEAP reporter activity,RAW-Dual [1]; [5],1.06
CN(C)NC(=O)CCC(=O)O (library stock concentration (final ~1000-fold dilution): 10 mM),NF-kB SEAP reporter activity,RAW-Dual [2]; agonist: LPS (TLR4) 0.1 ug/mL,1.2
same,NF-kB SEAP reporter activity,RAW-Dual [2]; [6],0.955
same,NF-kB SEAP reporter activity,RAW-Dual [2]; [7],0.776
same,NF-kB SEAP reporter activity,RAW-Dual [2]; [8],0.801
CN(C)NC(=O)CCC(=O)O,NF-kB SEAP reporter activity,RAW-Dual [1]; [5],0.991
COC12CC(COC(=O)c3cncc(Br)c3)CN(C)C1Cc1cn(C)c3cccc2c13 (stereo not drawn) (library stock concentration (final ~1000-fold dilution): 10 mM),NF-kB SEAP reporter activity,RAW-Dual [2]; agonist: LPS (TLR4) 0.1 ug/mL,1.06
same,NF-kB SEAP reporter activity,RAW-Dual [2]; [6],0.759
same,NF-kB SEAP reporter activity,RAW-Dual [2]; [7],0.858
same,NF-kB SEAP reporter activity,RAW-Dual [2]; [8],0.824
COC12CC(COC(=O)c3cncc(Br)c3)CN(C)C1Cc1cn(C)c3cccc2c13 (stereo not drawn),NF-kB SEAP reporter activity,RAW-Dual [1]; [5],1.14
CCC1=CC2CN3CCc4c([nH]c5ccccc45)C(C(=O)OC)(C2)C13.O=C(O)C(O)C(O)C(=O)O (stereo not drawn),NF-kB SEAP reporter activity,RAW-Dual [1]; [4],0.871
same,NF-kB SEAP reporter activity,RAW-Dual [1]; [5],1.12
CCC1=CC2CN3CCc4c([nH]c5ccccc45)C(C(=O)OC)(C2)C13.O=C(O)C(O)C(O)C(=O)O (stereo not drawn) (library stock concentration (final ~1000-fold dilution): 10 mM),NF-kB SEAP reporter activity,RAW-Dual [2]; agonist: LPS (TLR4) 0.1 ug/mL,0.978
same,NF-kB SEAP reporter activity,RAW-Dual [2]; [6],0.805
same,NF-kB SEAP reporter activity,RAW-Dual [2]; [7],0.917
same,NF-kB SEAP reporter activity,RAW-Dual [2]; [8],1.05
CC(C)N(CCC(C(N)=O)(c1ccccc1)c1ccccn1)C(C)C (stereo not drawn),NF-kB SEAP reporter activity,RAW-Dual [1]; [5],1.05
CC(C)N(CCC(C(N)=O)(c1ccccc1)c1ccccn1)C(C)C (stereo not drawn) (library stock concentration (final ~1000-fold dilution): 10 mM),NF-kB SEAP reporter activity,RAW-Dual [2]; agonist: LPS (TLR4) 0.1 ug/mL,0.964
same,NF-kB SEAP reporter activity,RAW-Dual [2]; [6],0.921
same,NF-kB SEAP reporter activity,RAW-Dual [2]; [7],1.11
same,NF-kB SEAP reporter activity,RAW-Dual [2]; [8],0.893
O=[N+]([O-])/C=C/c1ccc2c(c1)OCO2 (library stock concentration (final ~1000-fold dilution): 10 mM),NF-kB SEAP reporter activity,RAW-Dual [3]; agonist: LPS (TLR4) 0.1 ug/mL,0.403
same,NF-kB SEAP reporter activity,RAW-Dual [3]; [6],0.3
same,NF-kB SEAP reporter activity,RAW-Dual [3]; [7],0.11
same,NF-kB SEAP reporter activity,RAW-Dual [3]; [8],0.216
O=[N+]([O-])/C=C/c1ccc2c(c1)OCO2,NF-kB SEAP reporter activity,"RAW-Dual [1]; cytotoxicity flag (confluency mask): cytotoxic (confluency <70% of control), agonist: MPLA (TLR4) […]",0.26
COc1ccc(CN2CCNCC2)c(OC)c1OC.Cl.Cl,NF-kB SEAP reporter activity,RAW-Dual [1]; [4],0.88
same,NF-kB SEAP reporter activity,RAW-Dual [1]; [5],0.968
COc1ccc(CN2CCNCC2)c(OC)c1OC.Cl.Cl (library stock concentration (final ~1000-fold dilution): 10 mM),NF-kB SEAP reporter activity,RAW-Dual [2]; agonist: LPS (TLR4) 0.1 ug/mL,1.14
same,NF-kB SEAP reporter activity,RAW-Dual [2]; [6],0.998
same,NF-kB SEAP reporter activity,RAW-Dual [2]; [7],0.997
same,NF-kB SEAP reporter activity,RAW-Dual [2]; [8],0.98
C=C1CC2C(CCC3(C)C(=O)CCC23)C2(C)C=CC(=O)C=C12 (stereo not drawn),NF-kB SEAP reporter activity,RAW-Dual [1]; [4],1.64
same,NF-kB SEAP reporter activity,RAW-Dual [1]; [5],1.62
C=C1CC2C(CCC3(C)C(=O)CCC23)C2(C)C=CC(=O)C=C12 (stereo not drawn) (library stock concentration (final ~1000-fold dilution): 10 mM),NF-kB SEAP reporter activity,RAW-Dual [2]; agonist: LPS (TLR4) 0.1 ug/mL,0.812
same,NF-kB SEAP reporter activity,RAW-Dual [2]; [6],1.56
same,NF-kB SEAP reporter activity,RAW-Dual [2]; [7],0.681
same,NF-kB SEAP reporter activity,RAW-Dual [2]; [8],0.969
CCCCCCC[n+]1ccc(-c2cc[n+](CCCCCCC)cc2)cc1 (library stock concentration (final ~1000-fold dilution): 10 mM),NF-kB SEAP reporter activity,RAW-Dual [2]; agonist: LPS (TLR4) 0.1 ug/mL,3.95
same,NF-kB SEAP reporter activity,RAW-Dual [2]; [6],1.17
same,NF-kB SEAP reporter activity,RAW-Dual [2]; [7],1.02
same,NF-kB SEAP reporter activity,RAW-Dual [2]; [8],1.14
CCCCCCC[n+]1ccc(-c2cc[n+](CCCCCCC)cc2)cc1,NF-kB SEAP reporter activity,RAW-Dual [1]; [4],1.32
same,NF-kB SEAP reporter activity,RAW-Dual [1]; [5],2.11
CC(C)=CCOc1c2occc2cc2ccc(=O)oc12 (library stock concentration (final ~1000-fold dilution): 10 mM),NF-kB SEAP reporter activity,RAW-Dual [2]; agonist: LPS (TLR4) 0.1 ug/mL,1.19
same,NF-kB SEAP reporter activity,RAW-Dual [2]; [6],0.946
same,NF-kB SEAP reporter activity,RAW-Dual [2]; [7],0.977
same,NF-kB SEAP reporter activity,RAW-Dual [2]; [8],0.953
CC(C)=CCOc1c2occc2cc2ccc(=O)oc12,NF-kB SEAP reporter activity,RAW-Dual [1]; [4],0.983
same,NF-kB SEAP reporter activity,RAW-Dual [1]; [5],1.15
O=c1ccc2ccc3occc3c2o1 (library stock concentration (final ~1000-fold dilution): 10 mM),NF-kB SEAP reporter activity,RAW-Dual [2]; agonist: LPS (TLR4) 0.1 ug/mL,0.918
same,NF-kB SEAP reporter activity,RAW-Dual [2]; [6],0.845
same,NF-kB SEAP reporter activity,RAW-Dual [2]; [7],0.881
same,NF-kB SEAP reporter activity,RAW-Dual [2]; [8],1.02
O=c1ccc2ccc3occc3c2o1,NF-kB SEAP reporter activity,RAW-Dual [1]; [4],0.823
same,NF-kB SEAP reporter activity,RAW-Dual [1]; [5],0.995
COc1ccc(/C=C/c2cc(OC)cc(OC)c2)cc1,NF-kB SEAP reporter activity,RAW-Dual [1]; [4],0.911
same,NF-kB SEAP reporter activity,RAW-Dual [1]; [5],1.25
COc1ccc(/C=C/c2cc(OC)cc(OC)c2)cc1 (library stock concentration (final ~1000-fold dilution): 10 mM),NF-kB SEAP reporter activity,RAW-Dual [2]; agonist: LPS (TLR4) 0.1 ug/mL,1.35
same,NF-kB SEAP reporter activity,RAW-Dual [2]; [6],1.03
same,NF-kB SEAP reporter activity,RAW-Dual [2]; [7],0.767
same,NF-kB SEAP reporter activity,RAW-Dual [2]; [8],0.815
CC12CCC3C(CCC4=C(O)C(=O)CCC43C)C1CCC2=O (stereo not drawn) (library stock concentration (final ~1000-fold dilution): 10 mM),NF-kB SEAP reporter activity,RAW-Dual [2]; agonist: LPS (TLR4) 0.1 ug/mL,1.17
same,NF-kB SEAP reporter activity,RAW-Dual [2]; [6],1.21
same,NF-kB SEAP reporter activity,RAW-Dual [2]; [7],1.07
same,NF-kB SEAP reporter activity,RAW-Dual [2]; [8],1.23
CC12CCC3C(CCC4=C(O)C(=O)CCC43C)C1CCC2=O (stereo not drawn),NF-kB SEAP reporter activity,RAW-Dual [1]; [4],0.986
same,NF-kB SEAP reporter activity,RAW-Dual [1]; [5],1.01
